From article PMC4336329 (PLoS ONE, 2015)
The whole screen tested about 310,000 compounds, of which about 14,000 (4.5%) showed an effect of 50% or more. Effects have a minus sign here. This is one part of the list. Where a SMILES comes first, the peptide text is derived from it. [ ]: non-standard residue; d: D form. pGlu = O=C1CC[CH](C(=O)O)N1

The molecules below were run against human ether-à-go-go-related gene (hERG) potassium channel (human, UniProt Q12809) (assay: primary screen, population patch clamp on CHO cells stably expressing hERG).
Sequence of human ether-à-go-go-related gene (hERG) potassium channel (Q12809 whole entry, looked up): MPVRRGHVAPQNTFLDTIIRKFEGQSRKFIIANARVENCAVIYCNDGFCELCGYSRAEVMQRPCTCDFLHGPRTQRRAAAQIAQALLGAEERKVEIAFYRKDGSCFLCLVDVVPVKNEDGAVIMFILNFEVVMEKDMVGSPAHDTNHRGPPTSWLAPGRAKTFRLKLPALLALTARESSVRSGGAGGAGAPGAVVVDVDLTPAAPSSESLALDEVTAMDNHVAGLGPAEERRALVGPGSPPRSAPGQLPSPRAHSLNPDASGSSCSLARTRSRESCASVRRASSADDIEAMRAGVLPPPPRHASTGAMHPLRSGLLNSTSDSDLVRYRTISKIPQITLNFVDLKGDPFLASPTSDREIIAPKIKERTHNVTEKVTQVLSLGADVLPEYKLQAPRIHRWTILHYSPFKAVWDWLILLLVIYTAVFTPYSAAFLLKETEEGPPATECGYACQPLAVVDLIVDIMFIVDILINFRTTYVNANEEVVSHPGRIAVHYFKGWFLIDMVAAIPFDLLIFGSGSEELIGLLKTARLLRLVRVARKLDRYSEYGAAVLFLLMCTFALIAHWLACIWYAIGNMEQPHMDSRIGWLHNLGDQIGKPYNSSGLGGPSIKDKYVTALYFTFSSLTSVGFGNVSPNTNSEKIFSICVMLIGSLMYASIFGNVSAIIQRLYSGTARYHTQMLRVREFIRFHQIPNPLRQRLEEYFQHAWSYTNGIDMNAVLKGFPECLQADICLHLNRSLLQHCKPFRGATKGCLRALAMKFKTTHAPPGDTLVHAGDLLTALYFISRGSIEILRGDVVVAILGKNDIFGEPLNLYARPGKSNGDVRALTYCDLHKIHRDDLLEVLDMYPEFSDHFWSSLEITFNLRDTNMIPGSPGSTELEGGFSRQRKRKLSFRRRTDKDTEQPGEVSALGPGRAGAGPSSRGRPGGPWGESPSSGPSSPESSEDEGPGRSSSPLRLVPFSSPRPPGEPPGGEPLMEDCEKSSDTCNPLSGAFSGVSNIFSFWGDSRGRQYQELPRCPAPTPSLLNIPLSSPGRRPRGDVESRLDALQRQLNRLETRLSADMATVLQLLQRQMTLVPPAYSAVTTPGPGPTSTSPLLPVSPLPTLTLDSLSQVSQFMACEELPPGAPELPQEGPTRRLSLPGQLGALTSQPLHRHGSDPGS
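Note: peak tail current of the secondary pulse compared with the same well before compound.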

SMILES	hERG current change (%, negative = inhibition) at 10uM
Cc1cc(C)c2c(N)c(C(=O)c3ccc(Cl)cc3Cl)sc2n1	1.01%
CC(=O)C1=C(O)C(=O)N(CCNCCO)C1c1ccccc1 (stereo not shown)	5.73%
CCOCCCNC(=O)CN1C(=O)COc2ccc(S(=O)(=O)N3CCCC3)cc21	21.9%
O=C1c2oc3ccc(Cl)cc3c(=O)c2C(c2ccccn2)N1CCCN1CCOCC1 (stereo not shown)	1.95%
CCN1c2ccccc2NC2N=C(OC)C(c3ccccc3)C21 (stereo not shown)	1.45%
CCN(CC)C(=O)CCNS(=O)(=O)c1ccc(C)cc1	10.9%
COc1ccc2c(c1)CC/C2=N\NC(=O)c1ccccc1	-3.69%
CCOc1ccc(C(=O)NC(=S)Nc2ccccc2N2CCOCC2)cc1Br	-0.723%
COc1ccccc1CNC(=O)CCS(=O)(=O)c1cccs1	15.7%
Cc1cccc(CCNS(=O)(=O)c2ccc3c(c2)NC(=O)CO3)c1	3.2%
CCOC(=O)c1sc(NC(=O)CSc2n[nH]c(CC(C)C)n2)nc1C	-21.2%
O=C(Nc1ccccc1)c1ncoc1-c1ccc(Cl)cc1	15.4%
CC(C)OC(=O)CSc1nnc(-c2ccc(C(C)(C)C)cc2)n1N	-11.1%
Cc1ccc(C)c(N(CC(=O)N2CCCC2)S(C)(=O)=O)c1	12.2%
COc1cc(OC)c2c(c1)S(=O)(=O)C(c1ccccc1)=C2N	19.3%
O=C(NC(=S)Nc1cc([N+](=O)[O-])ccc1O)c1cccnc1	6.18%
Cc1ccc(NC(=O)Nc2cnccn2)c(C)c1	13.8%
O=C(NCCc1ccccc1)c1ccc2nccnc2c1	12.6%
CCOC(=O)C(C)Sc1nnc(-c2ccccc2O)n1Cc1ccccc1 (stereo not shown)	-19.6%
O=C(N/N=C/c1ccc(Br)s1)Nc1ccccc1	4.13%
CCCSc1cc(=O)n(-c2ccccc2)nc1C(=O)O	15.7%
O=C(CC1=NCCNC(c2ccccc2)C1)c1ccccc1O (stereo not shown)	-46.6%
Cc1ccc(CNC(=O)C2CCC(=O)N(Cc3ccc(Cl)cc3)C2)cc1F (stereo not shown)	-63.6%

SMILES	hERG current change (%, negative = inhibition) at 10uM
Cc1sc2ncn(CC(=O)N3CCN(c4ccccn4)CC3)c(=O)c2c1S(=O)(=O)N1CCCCC1	-36.7%
CC(C)(C)c1ccc(-n2nc(C(N)=O)c(O)cc2=O)cc1	12.9%
CC1(C)O[C@@H]2[C@H](O1)[C@@H](CO)O[C@H]2n1cnc2c(=O)[nH]cnc21	22.3%
CCOc1ccc(/C=C/C(=O)Nc2ccc(C(N)=O)cc2)cc1OC	1.76%
CC(Sc1nc2ncc(Cl)cc2[nH]1)C(=O)NC1(C#N)CCCCC1 (stereo not shown)	-0.999%
Cc1cc(=O)[nH]c(N/N=C/C(C)c2ccccc2)n1 (stereo not shown)	7.54%
Cc1ccc(S(=O)(=O)N2CCCN(C(=O)c3ccc(-n4cccn4)cc3)CC2)cc1	-74.2%
COc1ccc(C(=O)NCC(=O)OCC(=O)N2CCC(C)CC2)cc1OC	-1.82%
COc1cccc(C2C(C(C)=O)=C(O)C(=O)N2CCc2c[nH]c3ccccc23)c1 (stereo not shown)	-2.44%
Cc1cc(Cl)ccc1OCCCC(=O)NCCN1C(=O)S/C(=C\c2cccnc2)C1=O	-49.9%
Cc1ccc(NC(=S)C2=C(O)c3sccc3N(C)S2(=O)=O)cc1	10.4%
CCOC(=O)C1CCN(C(=O)COc2ccc(Br)cc2)CC1	-32.1%
C=CCOC(=O)C(C#N)c1nc2ccccc2nc1N1CCC(C(=O)OCC)CC1 (stereo not shown)	1.86%
CN1CCC(=O)N([C@H](CN=[N+]=[N-])c2ccccc2)CC1	6.65%
Cn1ncc(Br)c1C(=O)N1CCCC1	19%
CSCCCNC(=O)c1ccc(OC2CCN(C(=O)c3cccnc3)CC2)cc1	-11.4%
Cc1cccc(OCCC(=O)NCC(c2ccco2)N2CCCCC2)c1 (stereo not shown)	-17.4%
Cc1ccc(NC(=O)CN2C(=O)C3C4C=CC(C4)C3C2=O)cc1S(=O)(=O)N(C)C (stereo not shown)	-9.66%
COc1ccccc1C(=O)N(C)CC(=O)Nc1ccc(N2CCOCC2)cc1	2.83%
COc1ccccc1Nc1ccc(C(=O)NC2CCCCC2)cn1	-10.4%
C=CCOc1ccc(CNc2ccc3[nH]c(=O)[nH]c3c2)cc1	1.57%
CCN(CC)c1cc(CS(=O)c2ccccc2)nc(-c2ccccc2)n1 (stereo not shown)	-44.9%
CC(/C=C1\SC(=Nc2cccnc2)NC1=O)=C\c1ccccc1	8.95%

SMILES	hERG current change (%, negative = inhibition) at 10uM
CC(=C/c1ccc(C(C)C)cc1)/C=N/NC(=O)Cn1nnnc1N	17.3%
O=C(Nc1nnc(S(=O)(=O)Nc2ccccc2)s1)c1ccccc1Cl	8.51%
O=C(CN1CCN(C(=O)c2ccco2)CC1)Nc1ccccc1	-13.9%
O=C(Cn1[nH]c(=O)c2ccccc2c1=O)OCC(=O)c1ccc(Br)cc1	11.9%
CN1CCN(NC(=O)c2ccc(COc3ccccc3Br)o2)CC1	-18.3%
CC1CCc2nc3sc4c(c3c(N)c2C1)CCCC4 (stereo not shown)	-9.43%
COc1ccc(N(C(=O)c2cccnc2)S(=O)(=O)c2ccc(F)cc2)cc1	-11.9%
O=C(CN(Cc1ccco1)C(=O)CNS(=O)(=O)c1ccc(Cl)cc1)NCc1ccco1	-55.4%
CC(=O)N1CCN(C(=S)NC(=O)c2ccc(S(=O)(=O)N3CCOCC3)cc2)CC1	9.7%
Cc1ccc(Sc2ncccc2[N+](=O)[O-])cc1	0.884%
Cc1cc(C(=O)N/N=C/c2ccc([N+](=O)[O-])o2)c(C)o1	-7.72%
Cc1csc(-c2cccnc2)n1	6.37%
Cc1cccc(C)c1NC(=O)c1sccc1SCC#N	-21.3%
Cn1cnc2cc(NS(=O)(=O)c3ccc(Br)cc3)ccc21	10.1%
Cc1ccc(N(C)S(=O)(=O)c2cc3c(cc2C)NC(=O)CO3)cc1	-1.65%
COCCNC(=O)/C(C#N)=C/c1nc(N(C)C)n(-c2ccc(F)cc2)c1Cl	4.18%
Cc1ccn2c(-c3n[nH]c(=S)n3C)c(C)nc2c1	19.6%
Clc1ccccc1C1=NCc2nncn2-c2sc(Br)cc21	4.71%
O=C(Nc1cccc(O)c1)C1CC(c2c(F)cccc2Cl)=NO1 (stereo not shown)	-15.6%
COc1ccc(C(C#N)N2CCOCC2)cc1 (stereo not shown)	9.08%
Cc1ccc(S(=O)(=O)NCc2ccccc2)cc1C(=O)NCC1CCCO1 (stereo not shown)	7.03%
CCCCCN(C(=O)CCC(=O)OCC(=O)NC1CCC(C)CC1)c1c(N)n(CCCC)c(=O)[nH]c1=O (stereo not shown)	12.9%
CNC(=O)C(C#N)(Cc1cc(C(C)=O)ccc1OC)Cc1cc(C(C)=O)ccc1OC	16.5%

SMILES	hERG current change (%, negative = inhibition) at 10uM
C(=N\Nc1ncnc2sc3c(c12)CCC3)/c1cccs1	7.32%
Cc1cc(C(=O)N/N=C/c2ccc(-c3cccc(Br)c3)o2)n[nH]1	12.4%
Cc1cc(Br)cc2c(C(=O)NCC3CCCO3)cc(-c3cccs3)nc12 (stereo not shown)	4.81%
CC(C)c1ccc2oc(=O)cc(CN3CCN(c4ccccc4)CC3)c2c1	-10.4%
Cc1ccc(Cl)cc1NC(=O)CCC(=O)O	8.47%
CNC(=O)c1[nH]nc2c1CCc1cc(OC)ccc1-2	12.8%
S=c1[nH]nc(COc2ccccc2)n1/N=C/C=C/c1ccccc1	5.34%
COCCn1nnnc1CN1CCC(C)CC1	-2.19%
CCOc1cc(/C=N/NC(N)=O)cc(Br)c1OCC(=O)Nc1ccccc1C	-65.7%
Cc1cnc([N+](=O)[O-])n1CCOC(=O)NC(=O)c1ccc(F)cc1	-9.2%
CC1(C)CC2CC(C)(CN2c2ncnc3ccc(Br)cc23)C1 (stereo not shown)	11%
CCn1c(SCC(=O)c2ccc(Cl)s2)nnc1-c1cccs1	-35.5%
CCCCOc1ccc(C(=O)NCC(=O)NCCOc2ccccc2)cc1	1.13%
O=C(CC(=O)NC1CCCCC1)N/N=C/c1ccccc1Cl	11%
Cc1cccc(Nc2nc(N)c(C#N)c(CC#N)c2C#N)c1	-17.3%
CCNC(=O)C(CC(C)C)NC(=O)C(CO)NC(=O)C1CCC(=O)N1 (stereo not drawn) ([pGlu]-Ser-Leu-NHEt; configuration not given here)	11.8%
O=S(=O)(c1ccc(Cl)cc1)N1CCN(Cc2cccnc2)CC1	-27.2%
CC(=O)n1cc(/C=N/NC(=O)c2ccccc2Cl)c2ccccc21	26.4%
O=C(O)C1CCN(C(=O)c2cc(F)cc3c2OCOC3)CC1	17.1%
O=C(N1CCN(CCO)CC1)N1c2ccccc2CCc2ccccc21	-3.3%
Cc1cccc(OCC(=O)NCC(=O)N/N=C/c2cc(Br)cc(Br)c2O)c1	23%
CCN(CC)C(=O)C1CCCN(C/C=C/c2ccccc2)C1 (stereo not shown)	-40.8%
